Measurements as given in PubChem BioAssay AID588591 (National Center for Advancing Translational Sciences (NCATS), 2011).
About 4,700 (1.2%) of roughly 390,000 compounds were called active. This list was built around the results that the source calls inconclusive (neither active nor inactive); the mix of calls is not that of the screen. Calls come from the whole dose curve; as a rule, active = well fitted inhibition curve with a large enough effect; inconclusive = small, poorly fitted or top-dose-only effect, or another doubt; inactive = no such curve, though single readings can be large or run the other way. Potencies beside an inconclusive call are fits to weak or partial responses and may not hold up.

Target: DNA polymerase eta (Homo sapiens) (UniProt Q9Y253)
Experiment: qHTS for Inhibitors of Polymerase Eta
Settings: recombinant Pol eta, fluorescent DNA replication assay; series mostly up to 114 µM; activity change, negative = inhibition: at the top concentration
Summary of the method: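 Pol eta at 10 nM preincubated with compounds 15 min at room temperature; reaction started with fluorescent substrate (50 nM final) and read kinetically at 0 and 10 min.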
% is set by controls: 0 for no effect and ±100 for the full control effect; potency is the fitted concentration of half-maximal effect; tags give direction and shape of the fitted curve.

Sequence of UniProt Q9Y253 (Q9Y253 whole entry, looked up): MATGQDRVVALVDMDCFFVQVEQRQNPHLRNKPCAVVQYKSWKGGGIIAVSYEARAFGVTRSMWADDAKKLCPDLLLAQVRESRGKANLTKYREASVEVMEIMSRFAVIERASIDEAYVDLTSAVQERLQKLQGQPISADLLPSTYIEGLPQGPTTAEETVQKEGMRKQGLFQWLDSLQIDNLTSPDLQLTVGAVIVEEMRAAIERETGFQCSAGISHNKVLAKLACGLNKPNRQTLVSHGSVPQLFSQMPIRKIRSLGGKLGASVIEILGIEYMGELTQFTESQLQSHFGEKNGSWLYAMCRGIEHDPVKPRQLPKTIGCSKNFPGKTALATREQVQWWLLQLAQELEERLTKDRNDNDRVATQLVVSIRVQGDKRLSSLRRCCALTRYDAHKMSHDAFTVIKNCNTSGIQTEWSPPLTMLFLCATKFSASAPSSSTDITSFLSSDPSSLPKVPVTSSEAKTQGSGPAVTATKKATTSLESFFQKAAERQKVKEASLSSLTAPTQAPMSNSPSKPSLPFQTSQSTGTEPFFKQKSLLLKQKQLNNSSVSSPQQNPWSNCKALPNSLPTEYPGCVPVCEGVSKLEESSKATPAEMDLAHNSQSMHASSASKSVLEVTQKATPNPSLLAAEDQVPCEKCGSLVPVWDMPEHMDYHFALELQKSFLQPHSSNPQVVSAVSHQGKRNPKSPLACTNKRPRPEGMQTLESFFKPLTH

SMILES | Potency | activity change, negative = inhibition
CC(=O)c1ccc2c(c1)C1C=CCC1C(c1ccc(S(=O)(=O)N3CCOCC3)cc1)N2 (stereo not given) | inconclusive: 28.2 µM [inhibitor, partial curve, poor fit] | 
CC(=O)Nc1ccc(NC(=O)C2CCCN(c3nnc(-n4cccc4)s3)C2)cc1 (stereo not given) | inconclusive: 25.1 µM [inhibitor, partial curve, poor fit] | 
Cc1cccc(NC(=O)CCc2nnc3ccc(NCc4ccco4)nn23)n1 | active: 25.1 µM | 
COc1ccc(CCn2c(C)cc(C(=O)COC(=O)c3ccc(NC(=O)CC#N)cc3)c2C)cc1 | active: 79.4 µM | 
COc1cc(/C=N/Nc2ccc(Cl)c(C(=O)O)c2)ccc1OC(=O)c1ccco1 |  | inactive: -18.1%
N#C/C(=C\c1ccc(OCc2cccc(C(=O)O)c2)cc1)C(=O)NCc1ccco1 | inconclusive: 50.1 µM [inhibitor, partial curve, poor fit] | 
Cc1cc(SCC(=O)N/N=C/c2ccc(O)c(O)c2)nc2ccccc12 | active: 20 µM | 
CC(C)[C@H](NC(=O)c1ccco1)C(=O)OCC(=O)Nc1cccc(F)c1 |  | inactive: -18.3%
O=C1c2nc3cc(-c4ccco4)[nH]n3c(=O)c2CN1Cc1ccccc1 | inconclusive: 56.2 µM [inhibitor, partial curve, poor fit] | 
COc1ccc(/C=N/NC(=O)c2[nH]c3ccc(Cl)cc3c2-c2ccccc2)c(C(=O)O)c1OC | active: 79.4 µM | 
CCCOc1ccc(/C(O)=C2\C(=O)C(=O)N(c3ccccn3)C2c2ccccc2F)cc1C (stereo not given) | inconclusive: 56.2 µM [inhibitor, partial curve, poor fit] | 
O=C(N/N=C/C=C/c1ccco1)/C(=C/c1ccccc1)NC(=O)c1ccccc1 | active: 79.4 µM | 
COc1ccc(-c2cn3c(n2)sc2cc(C(=O)NC(C)C45CC6CC(CC(C6)C4)C5)ccc23)cc1 (stereo not given) |  | inactive: -11.2%
O=C(COC(=O)c1cc(S(=O)(=O)N2CCCCC2)ccc1N1CCOCC1)NC1CCCCC1 | inconclusive: 3.98 µM [inhibitor, partial curve, poor fit] | 
O=C1N=C(N2CCCC2)S/C1=C\c1cccc(Br)c1 | inconclusive: 31.6 µM [inhibitor, single point] | 
C/C(=N\NC(=O)c1cccc(N/N=C(\C)c2ccco2)c1)c1ccco1 | active: 22.4 µM | 
CCN1CCN(CCNC(=O)c2ccc3c(c2)NC(=O)/C(=C\c2ccc(OC)c(OC)c2)S3)CC1 | inconclusive: 89.1 µM [inhibitor, partial curve] | 
CC1CCC/C=C/C(=O)c2c(O)cc(O)cc2CC(=O)O1 (stereo not given) | active: 35.5 µM | 
CCC1CCC(C(=O)NC(C(=O)NCCc2ccc(S(N)(=O)=O)cc2)C(C)C)CC1 (stereo not given) | inconclusive: 39.8 µM [inhibitor, single point] | 
Cc1ccc(-n2nc3c(N4CCC(C(=O)NCc5ccccc5C)CC4)nnc(C)c3c2C)cc1 | active: 50.1 µM | 
COc1ccc(-c2cn3cc(Cl)ccc3n2)cc1OC | inconclusive: 31.6 µM [inhibitor, single point] | 
Cc1ccc(C)c(NC(=O)CSc2nnc3[nH]c(=O)cc(-c4ccccc4)n23)c1 |  | inactive: -13.3%
Cc1ccc(S(=O)(=O)N(CC(=O)Nc2ccc(F)cc2F)Cc2ccc(F)cc2)cc1 | inconclusive: 35.5 µM [inhibitor, partial curve, poor fit] | 
O=[N+]([O-])c1ccc(Oc2ccc(F)cc2)c2ccncc12 | inconclusive: 22.4 µM [inhibitor, partial curve, poor fit] | 

SMILES | Potency | activity change, negative = inhibition
Cc1nc(N2CCC(C)CC2)c2c(C)c(C(=O)Nc3cccc(C(F)(F)F)c3)sc2n1 |  | inactive: -11.8%
CCN(CC)C(=O)c1sc2c(c1C)c(=O)n(CCc1ccccc1)c(=O)n2Cc1ccc(C)cc1 |  | inactive: -19.4%
O=C(O)c1ccc(-c2ccc(/C=C3\NC(=O)N(Cc4ccc(Cl)cc4)C3=O)o2)cc1Cl | active: 1.26 µM | 
COc1ccc(-n2c(NC(=O)c3ccco3)c(C#N)c3nc4ccccc4nc32)cc1 | active: 20 µM | 
COC1=C/C(=C/c2c(N)n3nc(CC(=O)N4CCCC4)sc3nc2=O)C=CC1=O |  | inactive: -4.5%
COC(=O)CCC(=O)OC1(C)C(=O)C=C2C=C(c3ccsc3)OC=C2C1=O (stereo not given) | active: 5.01 µM | 
COc1ccccc1NC(=O)/C=C\c1ccco1 | inconclusive: 44.7 µM [inhibitor, partial curve] | 
NC(=S)N/N=C/c1ccc(-c2cc(Cl)ccc2Cl)o1 |  | inactive: -4.64%
COc1ccc(NS(=O)(=O)c2ccc(N)c(C(=O)O)c2)cc1 |  | inactive: 2.36%
O=[N+]([O-])c1cccc(S(=O)(=O)Nc2nc3ccccc3nc2Nc2cccc(S(=O)(=O)N3CCCCC3)c2)c1 | inconclusive: 35.5 µM [inhibitor, partial curve, poor fit] | 
O=C(Nc1ccccc1C(=O)O)c1ccc(NC(=O)c2ccc(Br)o2)cc1 | inconclusive: 100 µM [inhibitor, partial curve, poor fit] | 
COc1ccc2c(CC(=O)NCc3cccs3)coc2c1 | inconclusive: 56.2 µM [inhibitor, partial curve, poor fit] | 
Cc1coc2cc3oc(=O)c(CCC(=O)N[C@@H](CCCNC(N)=O)C(=O)O)c(C)c3cc12 |  | inactive: -3.49%
CCC(C)CCCCCCCCCCC(=O)O (stereo not given) | inconclusive: 89.1 µM [inhibitor, single point] | 
C/C=C/C=C\C(=O)Nc1cccc(C2=NOC3(C2)C[C@@H](C(N)=O)N(C(=O)/C(C)=C/C)C3)c1 (stereo not given in full) | active: 17.8 µM | 
COC(=O)c1sc2nc(CSc3nc4ccc(C)cc4[nH]3)[nH]c(=O)c2c1C | inconclusive: 25.1 µM [inhibitor, single point] | 
O=C(Nc1ccccc1C(=O)NC1CCCCC1)c1ccco1 | inconclusive: 35.5 µM [inhibitor, single point] | 
Cc1cccc[n+]1C1C(c2ccccc2)C(C#N)=C(C(=C=[N-])C#N)NC1(O)C1CC1 (stereo not given) | inconclusive: 31.6 µM [inhibitor, single point] | 
Cc1ccc(NC(=O)N2CC3CCCN3c3ccccc32)cc1Cl (stereo not given) |  | inactive: -7.29%
COc1ccc2nc(NNC(=O)c3cc(=O)c4ccccc4o3)sc2c1 | active: 79.4 µM | 
O=C(NCc1ccco1)C1CC(=O)N(CCc2ccccc2)C1 (stereo not given) | inconclusive: 31.6 µM [inhibitor, partial curve, poor fit] | 
CCN1CCN(c2nnc(-n3cccc3C(=O)NCc3ccccc3OC)s2)CC1 |  | inactive: -15.1%
COCCCNC(=O)c1ccc(Cn2c(SCc3ccc(F)cc3)nc3cccnc32)cc1 |  | inactive: -1.66%
O=C(OCc1cc(=O)n2nc(-c3cccs3)sc2n1)c1cccc(F)c1 | inconclusive: 89.1 µM [inhibitor, single point] | 

SMILES | Potency | activity change, negative = inhibition
CC1(C)NC(=O)N(CC(=O)OCC(=O)c2ccc(Br)s2)C1=O | inconclusive: 15.8 µM [inhibitor, full curve, poor fit] | 
COc1cc2nc3occc3c(OC)c2cc1OC |  | inactive: -14.7%
CC(=O)Nc1ccc(-c2cc(-c3ccccc3)nc(-c3ccccc3)n2)cc1 | inconclusive: 39.8 µM [inhibitor, single point] | 
CC(=O)c1ccc(N2CCN(C(=O)c3cc(S(=O)(=O)N4CCCCCC4)cn3C)CC2)cc1 |  | inactive: -20.4%
O=C(CSc1ccc2nnc(-c3cccnc3)n2n1)NCc1ccco1 |  | inactive: -1.62%
CCN(CC)C(=O)CSc1nnc(CSc2ncccn2)n1C | inconclusive: 89.1 µM [inhibitor, partial curve, poor fit] | 
O=C(O)CCCC(=O)Nc1ccc(N2CCCC2)cc1 | active: 12.6 µM | 
O=[N+]([O-])c1ccc(Cl)c(S(=O)(=O)Nc2ccc(-c3ccc(N4CCCC4)nn3)cc2)c1 | active: 44.7 µM | 
CC/C(=C\C(=O)c1ccncc1)Nc1ccc(Br)cc1 | inconclusive: 25.1 µM [inhibitor, partial curve, poor fit] | 
Cc1ccc(N=Cc2ccc(O)cc2O)cc1F | inconclusive: 22.4 µM [inhibitor, single point] | 
CCOc1cc(C2NC(=O)NC(C)=C2C(C)=O)cc(Cl)c1OCC(=O)O (stereo not given) | active: 22.4 µM | 
C=CSc1sc(Cl)c(N(CC)CC)c1[N+](=O)[O-] | inconclusive: 89.1 µM [inhibitor, single point] | 
O=C(CN1CCOCC1)N/N=C/c1ccc(-c2ccc(C(=O)O)cc2)o1 | active: 39.8 µM | 
O=[N+]([O-])c1ccc(CSc2nc3ncc(Br)cc3[nH]2)cc1 | inconclusive: 44.7 µM [inhibitor, partial curve, poor fit] | 
CCOc1ccc2nc(N3CCCC(C(=O)Nc4ccc(OC)cc4)C3)sc2c1 (stereo not given) |  | inactive: -14.9%
N#C/C(=C\c1cccs1)C(=O)c1ccccc1Cl | inconclusive: 100 µM [inhibitor, partial curve, poor fit] | 
O=[N+]([O-])c1cc(Br)c(O)c(/C=N/Nc2nnnn2-c2cccc3ccccc23)c1 | active: 70.8 µM | 
C/C(=N\NC(=O)Cc1cccn1C)c1ccco1 |  | inactive: -6.35%
CCOc1cc(NC(=O)c2ccco2)c(OCC)cc1NC(=O)Cc1cccc(OC)c1 | inconclusive: 28.2 µM [inhibitor, partial curve, poor fit] | 
CCOc1ccc(C2Nc3cccc4cccc(c34)N2)cc1OC | inconclusive: 31.6 µM [inhibitor, partial curve] | 
CN(C=[N+](C)C)c1cccc2c1C(=O)c1ccccc1C2=O | inconclusive: 22.4 µM [inhibitor, partial curve, poor fit] | 
CCCCN(C(=O)c1cccc(-n2cccc2)c1)c1c(N)n(CCC)c(=O)[nH]c1=O | active: 15.8 µM | 
